The supplement of paper PMC4967469

Assays:
Assay in all cases: Viability of human cancer cell lines after 72 h of drug (GDSC screen)
Tamoxifen = compound: CC/C(=C(\c1ccccc1)c1ccc(OCCN(C)C)cc1)c1ccccc1 [Tamoxifen]; conditions: top dose 5 µM
Protocol: (§1)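 Human cancer cell lines in 384-well plates, medium with 10% serum, drug for 72 h over a 256-fold dose range (nine 2-fold or five 4-fold steps up to the top dose). Adherent lines were fixed and stained with the nucleic acid dye Syto60, suspension lines read with resazurin; signal relative to control wells, capped at 0 and 100%. One two-parameter sigmoid per drug and line, fitted in a mixed model over all curves with the slope shared within a line.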

LAQ824 = compound: O=C(/C=C/c1ccc(CN(CCO)CCc2c[nH]c3ccccc23)cc1)NO [LAQ824]; conditions: top dose 1.024 µM; top dose inferred
Protocol: as §1

Bleomycin = compound: Cc1c(N)nc([C@H](CC(N)=O)NC[C@H](N)C(N)=O)nc1C(=O)N[C@H](C(=O)N[C@H](C)[C@@H](O)[C@H](C)C(=O)N[C@H](C(=O)NCCc1nc(-c2nc(C(=O)NCCC[S+](C)C)cs2)cs1)[C@@H](C)O)[C@@H](OC1OC(CO)C(O)C(O)C1OC1OC(CO)C(O)C(OC(N)=O)C1O)c1cnc[nH]1 [Bleomycin]
Protocol: as §1

VNLG/124 = compound: CCCC(=O)OCc1ccc(OC(=O)/C=C(C)/C=C/C=C(C)/C=C/C2=C(C)CCCC2(C)C)cc1 [VNLG/124]; conditions: top dose 5.12 µM; top dose inferred
Protocol: as §1

NSC-87877 = compound: O=S(=O)(O)c1ccc2cc(N=Nc3cc(S(=O)(=O)O)c4cccnc4c3O)ccc2c1 [NSC-87877]; conditions: top dose 16 µM; top dose inferred
Protocol: as §1

BX-912 = compound: O=C(Nc1cccc(Nc2ncc(Br)c(NCCc3cnc[nH]3)n2)c1)N1CCCC1 [BX-912]; conditions: top dose 10.24 µM; top dose inferred
Protocol: as §1

Elesclomol = compound: CN(NC(=O)CC(=O)NN(C)C(=S)c1ccccc1)C(=S)c1ccccc1 [Elesclomol]; conditions: top dose 0.2 µM; top dose inferred
Protocol: as §1

OSI-930 = compound: O=C(Nc1ccc(OC(F)(F)F)cc1)c1sccc1NCc1ccnc2ccccc12 [OSI-930]; conditions: top dose 10.24 µM
Protocol: as §1

HG-5-88-01 = compound: COc1cc(N2CCC(C(N)=O)CC2)ccc1Nc1nc(N)c(Cl)c(Nc2ccccc2S(=O)(=O)C(C)C)n1 [HG-5-88-01]; conditions: top dose 10 µM; top dose inferred
Protocol: as §1

Masitinib = compound: Cc1ccc(NC(=O)c2ccc(CN3CCN(C)CC3)cc2)cc1Nc1nc(-c2cccnc2)cs1 [Masitinib]; conditions: top dose 20 µM
Protocol: as §1

[1] = top dose 50 µM, screen: GDSC drug entry 1378, top dose inferred
[2] = top dose 64 µM, screen: GDSC drug entry 190

Cell Line | AUC (Tamoxifen) | IC50 (Tamoxifen) [µM] | AUC (LAQ824) | IC50 (LAQ824) [µM] | AUC (Bleomycin; [1]) | IC50 (Bleomycin; [1]) [µM] | AUC (Bleomycin; [2]) | IC50 (Bleomycin; [2]) [µM] | AUC (VNLG/124) | IC50 (VNLG/124) [µM] | AUC (NSC-87877) | IC50 (NSC-87877) [µM] | AUC (BX-912) | IC50 (BX-912) [µM] | AUC (Elesclomol) | IC50 (Elesclomol) [µM] | AUC (OSI-930) | IC50 (OSI-930) [µM] | AUC (HG-5-88-01) | IC50 (HG-5-88-01) [µM] | AUC (Masitinib) | IC50 (Masitinib) [µM]
TE-1 (oesophagus, adherent) | 0.965 | > 5 | 0.301 | 0.015 | 0.471 | 2.55 | 0.573 | 6.7 | 0.981 | > 5.12 | 0.972 | > 16 | 0.903 | > 10.2 | 0.696 | 0.0521 | 0.941 | > 10.2 | 0.711 | 2.93 | 0.945 | > 20
H9 (lymphoid neoplasm, suspension) | 0.977 | > 5 | 0.196 | 0.01 | 0.781 | 17 | 0.198 | 0.637 | 0.986 | > 5.12 | 0.984 | > 16 | 0.892 | 8.26 | 0.897 | 0.17 | 0.979 | > 10.2 | 0.973 | > 10 | 0.957 | > 20
TE-12 (oesophagus, suspension) | 0.974 | > 5 | 0.486 | 0.0579 | 0.65 | 8.95 | 0.284 | 0.844 | 0.978 | > 5.12 | 0.981 | > 16 | 0.814 | 7.17 | 0.513 | 0.0136 | 0.927 | > 10.2 | 0.87 | > 10 | 0.908 | > 20
STS-0421 (soft tissue, adherent) | 0.969 | > 5 | 0.412 | 0.0353 | 0.444 | 2.15 | 0.106 | < 0.25 |  |  | 0.983 | > 16 | 0.539 | 0.831 | 0.846 | 0.184 |  |  | 0.895 | > 10 |  | 
A375 (melanoma, adherent) | 0.991 | > 5 | 0.393 | 0.0345 | 0.099 | 0.221 | 0.113 | 0.323 | 0.987 | > 5.12 | 0.988 | > 16 | 0.887 | 7.9 | 0.186 | 0.00183 | 0.991 | > 10.2 | 0.837 | 5.08 |  | 
EoL-1-cell (haematopoietic neoplasm, suspension) | 0.934 | > 5 | 0.303 | 0.0194 | 0.532 | 3.78 | 0.431 | 2.65 | 0.469 | 0.266 | 0.98 | > 16 | 0.188 | 0.0873 | 0.542 | 0.016 |  |  | 0.878 | 8.08 | 0.132 | 0.107
A704 (kidney, adherent) | 0.972 | > 5 | 0.525 | 0.0749 | 0.953 | > 50 | 0.595 | 7.21 |  |  | 0.986 | > 16 | 0.956 | > 10.2 | 0.599 | 0.0232 | 0.985 | > 10.2 | 0.956 | > 10 | 0.893 | > 20
LB647-SCLC (small cell lung carcinoma, semi-adherent) | 0.983 | > 5 | 0.286 | 0.0146 | 0.313 | 0.873 | 0.477 | 3.43 | 0.976 | > 5.12 | 0.982 | > 16 | 0.728 | 3.12 | 0.487 | 0.0114 |  |  | 0.915 | > 10 |  | 
KMH-2 (thyroid, adherent) | 0.983 | > 5 | 0.347 | 0.0254 |  |  |  |  | 0.98 | > 5.12 | 0.99 | > 16 | 0.867 | 7.58 | 0.668 | 0.0347 | 0.989 | > 10.2 | 0.847 | 6.19 | 0.885 | 17.8
ES8 (Ewing sarcoma, adherent) | 0.983 | > 5 | 0.302 | 0.0186 | 0.144 | 0.275 | 0.44 | 2.78 | 0.982 | > 5.12 | 0.986 | > 16 |  |  | 0.184 | 0.00156 | 0.951 | > 10.2 | 0.794 | 4.21 | 0.868 | 16
NCI-H847 (small cell lung carcinoma, adherent) | 0.991 | > 5 | 0.269 | 0.0164 | 0.971 | > 50 | 0.971 | > 64 | 0.962 | > 5.12 | 0.989 | > 16 |  |  | 0.925 | > 0.2 | 0.884 | 7.44 | 0.949 | > 10 | 0.875 | 13.5
D-336MG (glioma, adherent) | 0.945 | > 5 |  |  | 0.743 | 19.3 |  |  | 0.885 | > 5.12 | 0.981 | > 16 | 0.782 | 5.64 | 0.583 | 0.0224 | 0.967 | > 10.2 | 0.904 | > 10 | 0.904 | > 20
PL4 (pancreas, adherent) | 0.985 | > 5 | 0.486 | 0.0585 | 0.408 | 1.73 | 0.674 | 12.4 | 0.987 | > 5.12 |  |  | 0.954 | > 10.2 | 0.787 | 0.0904 | 0.971 | > 10.2 | 0.832 | 6.72 | 0.986 | > 20

By IC50 is meant the dose at which the fit gives 50% viability; a fit beyond the top or the lowest dose is shown as a bound at that dose. For AUC the same curve is integrated over the 256-fold range of doses and scaled to a fraction; it is 1 without any effect and falls as sensitivity rises. For some of these results: Where the top dose is marked as inferred, it comes from the curve model; the source does not state it. For some of these results: Drugs with an entry number were screened twice under separate entries, and the two screens often disagree.
